Results as given in the supplement of paper PMC8728848.
The other results are listed elsewhere or left out.

What was measured:
Experiment in all cases: glycan array binding signal (z-score within array); higher = stronger binding
Details in all cases: glycan notation: IUPAC condensed, linker removed
Gal(a1-3)GalNAc = target: Gal(a1-3)GalNAc
In short: (§1)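 Glycan array binding is given as a within-array Z-score, which can be read as non-binding when negative. The arrays, 3228 of them, came from the Consortium for Functional Glycomics database and were retained only where the protein sequence was available. Z-scores were averaged across arrays of the same protein sequence at different concentrations or buffers and across linkers.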

[1] = target: Gal(a1-3)[Gal(a1-4)]Gal(b1-4)GlcNAc
In short: as §1

[2] = target: Gal(a1-4)Gal(b1-3)GlcNAc(b1-2)Man(a1-3)[Gal(a1-4)Gal(b1-3)GlcNAc(b1-2)Man(a1-6)]Man(b1-4)GlcNAc(b1-4)GlcNAc
In short: as §1

Gal(a1-4)Gal(b1-4)Glc = target: Gal(a1-4)Gal(b1-4)Glc
In short: as §1

Gal(a1-4)Gal(b1-4)GlcNAc = target: Gal(a1-4)Gal(b1-4)GlcNAc
In short: as §1

[3] = target: Gal(a1-4)Gal(b1-4)GlcNAc(b1-2)Man(a1-3)[Gal(a1-4)Gal(b1-4)GlcNAc(b1-2)Man(a1-6)]Man(b1-4)GlcNAc(b1-4)GlcNAc
In short: as §1

[4] = target: Gal(a1-4)Gal(b1-4)GlcNAc(b1-3)Gal(b1-4)Glc
In short: as §1

Gal(a1-4)GlcNAc = target: Gal(a1-4)GlcNAc
In short: as §1

Gal(a1-6)Glc = target: Gal(a1-6)Glc
In short: as §1

Gal(b1-2)Gal = target: Gal(b1-2)Gal
In short: as §1

Gal(b1-3)Gal = target: Gal(b1-3)Gal
In short: as §1

Gal(b1-3)Gal(b1-4)GlcNAc = target: Gal(b1-3)Gal(b1-4)GlcNAc
In short: as §1

Gal(b1-3)GalNAc = target: Gal(b1-3)GalNAc
In short: as §1

[5] = target: Gal(b1-3)GalNAc(a1-3)[Fuc(a1-2)]Gal(b1-4)Glc
In short: as §1

[6] = target: Gal(b1-3)GalNAc(a1-3)[Fuc(a1-2)]Gal(b1-4)GlcNAc
In short: as §1

Gal(b1-3)GalNAc(b1-3)Gal = target: Gal(b1-3)GalNAc(b1-3)Gal
In short: as §1

[7] = target: Gal(b1-3)GalNAc(b1-3)Gal(a1-4)Gal(b1-4)Glc
In short: as §1

[8] = target: Gal(b1-3)GalNAc(b1-4)Gal(b1-4)Glc
In short: as §1

[9] = target: Gal(b1-3)GalNAc(b1-4)[Neu5Ac(a2-3)]Gal(b1-4)Glc
In short: as §1

Gal(b1-3)GlcNAc = target: Gal(b1-3)GlcNAc
In short: as §1

[10] = target: Gal(b1-3)GlcNAc(a1-3)Gal(b1-4)GlcNAc
In short: as §1

[11] = target: Gal(b1-3)GlcNAc(a1-6)Gal(b1-4)GlcNAc
In short: as §1

Gal(b1-3)GlcNAc(b1-2)Man = target: Gal(b1-3)GlcNAc(b1-2)Man
In short: as §1

[12] = target: Gal(b1-3)GlcNAc(b1-2)Man(a1-3)[Gal(b1-3)GlcNAc(b1-2)Man(a1-6)]Man(b1-4)GlcNAc(b1-4)GlcNAc
In short: as §1

[13] = target: Gal(b1-3)GlcNAc(b1-2)Man(a1-3)[Gal(b1-3)GlcNAc(b1-2)Man(a1-6)]Man(b1-4)GlcNAc(b1-4)[Fuc(a1-6)]GlcNAc
In short: as §1

[14] = target: Gal(b1-3)GlcNAc(b1-2)Man(a1-3)[GlcNAc(b1-4)][Gal(b1-3)GlcNAc(b1-2)Man(a1-6)]Man(b1-4)GlcNAc(b1-4)GlcNAc
In short: as §1

[15] = target: Gal(b1-3)GlcNAc(b1-2)[Gal(b1-3)GlcNAc(b1-6)]Man(a1-6)[Gal(b1-3)GlcNAc(b1-2)Man(a1-3)]Man(b1-4)GlcNAc(b1-4)GlcNAc
In short: as §1

[16] = target: Gal(b1-3)GlcNAc(b1-3)Gal(b1-3)GlcNAc
In short: as §1

[17] = target: Gal(b1-3)GlcNAc(b1-3)Gal(b1-4)Glc
In short: as §1

[18] = target: Gal(b1-3)GlcNAc(b1-3)Gal(b1-4)GlcNAc
In short: as §1

[19] = target: Gal(b1-3)GlcNAc(b1-3)Gal(b1-4)GlcNAc(b1-2)Man(a1-3)[Gal(b1-3)GlcNAc(b1-3)Gal(b1-4)GlcNAc(b1-2)Man(a1-6)]Man(b1-4)GlcNAc(b1-4)GlcNAc
In short: as §1

[20] = target: Gal(b1-3)GlcNAc(b1-3)Gal(b1-4)GlcNAc(b1-2)[Gal(b1-3)GlcNAc(b1-3)Gal(b1-4)GlcNAc(b1-6)]Man(a1-6)[Gal(b1-3)GlcNAc(b1-3)Gal(b1-4)GlcNAc(b1-2)Man(a1-3)]Man(b1-4)GlcNAc(b1-4)[Fuc(a1-6)]GlcNAc
In short: as §1

[21] = target: Gal(b1-3)GlcNAc(b1-3)Gal(b1-4)GlcNAc(b1-3)Gal(b1-4)GlcNAc(b1-2)[Gal(b1-3)GlcNAc(b1-3)Gal(b1-4)GlcNAc(b1-3)Gal(b1-4)GlcNAc(b1-6)]Man(a1-6)[Gal(b1-3)GlcNAc(b1-3)Gal(b1-4)GlcNAc(b1-3)Gal(b1-4)GlcNAc(b1-2)Man(a1-3)]Man(b1-4)GlcNAc(b1-4)[Fuc(a1-6)]GlcNAc
In short: as §1

[22] = target: Gal(b1-3)GlcNAc(b1-3)Gal(b1-4)GlcNAc(b1-6)[Gal(b1-3)GlcNAc(b1-3)]Gal(b1-4)Glc
In short: as §1

[23] = target: Gal(b1-3)GlcNAc(b1-3)Gal(b1-4)[Fuc(a1-3)]GlcNAc
In short: as §1

[24] = target: Gal(b1-3)GlcNAc(b1-3)Gal(b1-4)[Fuc(a1-3)]GlcNAc(b1-6)[Gal(b1-3)GlcNAc(b1-3)]Gal(b1-4)Glc
In short: as §1

[25] = target: Gal(b1-3)GlcNAc(b1-3)GalNAc
In short: as §1

[26] = target: Gal(b1-3)GlcNAc(b1-6)Gal(b1-4)GlcNAc
In short: as §1

B1: PkBDPgamma (Plasmodium knowlesi) (protein)
chain: SAINQIFLQNNVMDKCNDKRKRGERDWDCPTEKDVCIPDRRYQLCMMEITNLVDTDTHFHSDIIFRKSYSRRRLIYDVGGRGDLLLKKYNNVYSEDLCKDIKWSLQDFGDIIMGTDMEGIGYSLVVQNNLRSIFGTGTSAELDRKKWWNDHKKDIWKAMILSVKEKNRYSAWNCKEDVQIKVEPQIYRWIREWGRDYMSEFREQRRKLNEKCEDKLYYSTMLICTLPPCNNACKSYDEWITGKKKQWDVLSTKFSSVKKAQKIETENIARAYDILKQELNGFNEVTFENEINKRDKLYNYFCVCIVQEARKNTQENVKNVGSGVESKAPSSNPINEAVKSSSGEGKVQEDSAHRSVNEGEGKSSTNEADPGSQPGAAASGGGSGGGTGGGVDLAPQMLRELQETNAALQDVRELLRQQVKEITFLKNTVMECDACGGPLDRNLPPLAPLGPTGGWSHPQFEK
glycan array binding signal (z-score) (Gal(a1-3)GalNAc): -0.186 | glycan array binding signal (z-score) [1]: -0.071 | glycan array binding signal (z-score) [2]: -0.302 | glycan array binding signal (z-score) (Gal(a1-4)Gal(b1-4)Glc): -0.246 | glycan array binding signal (z-score) (Gal(a1-4)Gal(b1-4)GlcNAc): 0.478 | glycan array binding signal (z-score) [3]: 0.474 | glycan array binding signal (z-score) [4]: -0.346 | glycan array binding signal (z-score) (Gal(a1-4)GlcNAc): -0.303 | glycan array binding signal (z-score) (Gal(a1-6)Glc): -0.561 | glycan array binding signal (z-score) (Gal(b1-2)Gal): -0.181 | glycan array binding signal (z-score) (Gal(b1-3)Gal): 0.074 | glycan array binding signal (z-score) (Gal(b1-3)Gal(b1-4)GlcNAc): -0.413 | glycan array binding signal (z-score) (Gal(b1-3)GalNAc): -0.339 | glycan array binding signal (z-score) [5]: -0.236 | glycan array binding signal (z-score) [6]: 0.223 | glycan array binding signal (z-score) (Gal(b1-3)GalNAc(b1-3)Gal): -0.05 | glycan array binding signal (z-score) [7]: 0.291 | glycan array binding signal (z-score) [8]: 0.593 | glycan array binding signal (z-score) [9]: -0.399 | glycan array binding signal (z-score) (Gal(b1-3)GlcNAc): -0.062 | glycan array binding signal (z-score) [10]: 0.033 | glycan array binding signal (z-score) [11]: -0.036 | glycan array binding signal (z-score) (Gal(b1-3)GlcNAc(b1-2)Man): 0.518 | glycan array binding signal (z-score) [12]: 0.035 | glycan array binding signal (z-score) [13]: 0.129 | glycan array binding signal (z-score) [14]: 0.621 | glycan array binding signal (z-score) [15]: 0.809 | glycan array binding signal (z-score) [16]: -0.37 | glycan array binding signal (z-score) [17]: -0.254 | glycan array binding signal (z-score) [18]: -0.013 | glycan array binding signal (z-score) [19]: 0.439 | glycan array binding signal (z-score) [20]: 0.405 | glycan array binding signal (z-score) [21]: 0.06 | glycan array binding signal (z-score) [22]: 0.034 | glycan array binding signal (z-score) [23]: 0.293 | glycan array binding signal (z-score) [24]: -0.308 | glycan array binding signal (z-score) [25]: 0.426 | glycan array binding signal (z-score) [26]: 0.143
